The source gives no read counts; variants with many changes may rest on few reads.
B1: LINE1-mini (parent)
chain: GGCAGAGCUCAACACAGCGUGGCAAAGUGGCUGUGGCUAGACUGCC

Variants of: B1
Assay: self-cleavage, relative activity (ratio to wild type); higher = more cleavage; in vitro, sequencing; the parent is a self-cleaving ribozyme

Row | Variant | self-cleavage
1 | C3A C10U C18G C23G G40C | 0.02
2 | C3A C8A U9G U28G G44U | 0.03
3 | G2U G29C C37A | 0
4 | C3A A16U U20G G36C A39C | 0.16
5 | G2U C18U G27U U43A C46A | 0.01
6 | G2U G21U G33C U34G | 0
7 | C3A C23G C31U G44U C46A | 0.02
8 | G2U C18U G33C | 0.02
9 | G2U C18G C31G | 0.02
10 | C3A C15G A25C G29U C31A | 0.24
11 | G2U G35U U43C | 0.01
12 | G2U U9A A16C C23A | 0.11
13 | G2U C18G U32A G36C | 0.02
14 | C3A C13U A26C G40U | 0.12
15 | G2U C13A C18G G44C | 0.01
16 | C3A C8U G22C G27A G33C | 1.16
17 | C3A C31A C42U | 0.16
18 | C3A A12U G22U G29C | 0.19
19 | C3A C10A A11U A14U G27C | 0.01
20 | G2U G19C A26G | 0.03
21 | G2U C13U U28C A41U U43G | 0.04

Row | Variant | self-cleavage
22 | C3A C8U G44C | 0.14
23 | G2U G7A C8G C23U A39G | 0.05
24 | G2U C15U G22C | 0.03
25 | C3A G5A A12C A41C | 0.04
26 | C3A C15A G19U G35C | 0.02
27 | G2U U9A C13U G27U | 0.01
28 | G2U U9A G19A G21U | 0.01
29 | G2U G17U U20G G40A | 0.05
30 | G2U C15G G22U | 0.03
31 | G2U G7C G17U A26G A39C | 0.04
32 | C3A C13U G17C U20A G30C C31U G36U A39C | 0.05
33 | G2U C15A A24U | 0.02
34 | G2U C15G G17A G36A | 0.03
35 | C3A A11G G19C U20A A26G C45U | 0.01
36 | C3A A4G G33A U34C G44U | 0.09
37 | C3A C31A G33C G40U C42A | 0.15
38 | G2U C31U U32G | 0.04
39 | C3A C8U U28A C42G C45U | 0.08
40 | C3A A14G C31G | 0.09
41 | G2U C13G A14G G17C G33U U43A | 0
42 | C3A A4G A26G G40U | 0.02

Row | Variant | self-cleavage
43 | G2U U38C C46U | 0.06
44 | C3A A6G A12G G22C A39U | 0.04
45 | G2U C8U A12C C15A U32A C42U | 0
46 | C3A C8A U9G U34C | 0.95
47 | G2U C13U G21U | 0.05
48 | G2U C8G U38C | 0.09
49 | C3A C10A G33A U38C A39U | 0.04
50 | G2U C13A G29C | 0.04
51 | G2U G21C G27A A39U | 0.04
52 | G2U G5U G19A A39G | 0.1
53 | G2U G27A G44A | 0.08
54 | C3A C8U U9C G29U C31A | 0.04
55 | G2U C8G U32A G36U | 0.03
56 | C3A A12C G17U G19A | 0.15
57 | G2U G35U U38G | 0
58 | C3A A12C C13A G21U G30C A39C | 0.04
59 | C3A C10G A16G G27U | 0.03
60 | G2U G21A G36C | 0.03
61 | G2U G19U U32A G40U | 0.01
62 | C3A A11C A16U | 0.02
63 | G2U G7C A25C G35A | 0.04

Row | Variant | self-cleavage
64 | G2U U9G C45A | 0.05
65 | G2U U28C C31A | 0.02
66 | C3A A4G C13A G21U | 1.38
67 | C3A A12C U38C | 0.08
68 | G2U G19A G21C | 0.05
69 | G2U C8G G40U | 0.02
70 | C3A A11G U28G | 0.03
71 | G2U C10A G17U G27A C37G | 0
72 | G2U G7C U20C U32G | 0.01
73 | G2U G5C A26G G29A C37G G40U | 0.03
74 | C3A A4U A24G G29U C37G | 0.45
75 | C3A A6U C13G U32G U34C | 0.19
76 | C3A C31G G35A C46G | 0.04
77 | C3A A11G A41G | 0.07
78 | C3A C8G A12U G27C G36U | 0.59
79 | G2U C15U G27U G30A U38G C45U | 0
80 | C3A A16C A26U G27A | 0.06
81 | C3A C10A G19U U28G | 0.07
82 | G2U G5A G21U | 0.05
83 | C3A C15G G27C | 0.02
84 | G2U G36A C46A | 0.14

Reference: the RNAGym collection of RNA variant scans (doi:10.7554/elife.90254)
